In PubChem BioAssay AID1745853 (National Center for Advancing Translational Sciences (NCATS), 2022) one finds activity change, negative = inhibition data, which are given here for 29 molecules.

Several values for one entry are separate records, joined by “and”; a condition that tells them apart may be missing. Equal values may be shown once. Some of the results follow. Further columns of the screen follow, without active or inactive calls.

Test in all cases: Primary Screen for Target Class Profiling of Small Molecule Inhibitors of Methyltransferases
Assay [1] addresses Glycine N-methyltransferase (Homo sapiens) (UniProt Q14749). The following applies: purified enzyme, MTase-Glo SAH luminescence; measured here: GNMT inhibition; at 40 µM; stronger effect = lower value. An outline of the steps:
(§1)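 Each enzyme was reacted with SAM and its substrate, with compounds tested once at 40 uM; SAH formed was read by MTase-Glo luminescence.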

In assay [2] the target is Guanidinoacetate N-methyltransferase (Homo sapiens) (UniProt Q14353). To be noted: purified enzyme, MTase-Glo SAH luminescence; measured here: GAMT inhibition; at 40 µM; stronger effect = lower value. An outline of the steps:
as §1

Assay [3] addresses Histamine N-methyltransferase (Homo sapiens) (UniProt P50135). The following applies: purified enzyme, MTase-Glo SAH luminescence; measured here: HNMT inhibition; at 40 µM; stronger effect = lower value. An outline of the steps:
as §1

In assay [4] the target is Nicotinamide N-methyltransferase (Homo sapiens) (UniProt P40261). To be noted: purified enzyme, MTase-Glo SAH luminescence; measured here: NNMT inhibition; at 40 µM; stronger effect = lower value. The method in brief: as §1
For assay [5], the target named is Phenylethanolamine N-methyltransferase (Homo sapiens) (UniProt P11086). The following applies: purified enzyme, MTase-Glo SAH luminescence; measured here: PNMT inhibition; at 40 µM; stronger effect = lower value. An outline of the steps: as §1
On the % scale 0 is the no-effect control and ±100 the full control effect.

Consider `O=C(O)c1ccc(CN2CCC[C@H]2c2nc(-c3ccc(F)cn3)no2)cc1`, for which the activity change, negative = inhibition in assay [1] is -14.6%; in assay [2], -7.54%; in assay [3], -10.2%; in assay [4], -9.97%; in assay [5] it was -6.97%.
Regarding `O=C(O)C(c1ccc2c(c1)OCCO2)N1CCCN(c2ncccn2)CC1` (stereo not given), the activity change, negative = inhibition in assay [1] is -0.92%; in assay [2] it was 1.15%; in assay [3] it was 1.78%; in assay [4], -2.6%; in assay [5], -1.06%.
Taken in the same sequence, the figures for `Cc1ccc(C(=O)N2CCCCCCNC(=O)[C@@H]3C[C@@H](c4nc(Cc5ccccc5)no4)C[C@@H]32)s1` were -2.48%, -6.52%, 0.753%, -10.2% and -3.63%.
Taken in the same sequence, the figures for `O=C(N[C@@H](Cc1ccccc1)C(=O)CCl)OCc1ccccc1` were -3.66%, 9.06%, 1.6%, -7.86% and 4.23%.
Taken in the same sequence, the figures for `CC1CCC2(OC1)OC1CC3C4CCC5C[C@@H](O[C@@H]6O[C@H](CO[C@@H]7OC[C@@H](O)[C@H](O)[C@H]7O)[C@H](O)[C@H](O)[C@H]6O)CC[C@]5(C)C4CC[C@]3(C)C1C2C` (stereo not given in full) were -0.711%, 7.79%, 2.48%, -2.73% and 6.77%.
With `O=C(c1ccc(Nc2nn3c(=O)c4ccccc4nc3s2)cc1)N1CCN(c2ccccn2)CC1`, the activity change, negative = inhibition was -19.5% in assay [1]; 0% in assay [2]; -0.172% in assay [3]; -1.04% in assay [4]; 1.16% in assay [5].
The like results for `COCCN1CC(C(=O)NCCOc2ccccc2)CCC1=O` (stereo not given) were, in that order, -3.61%, -5.53%, -0.431%, -7.73% and 13%.
On to `O=C(c1cn(C2CNC2)nn1)N1CCOCC1`, for which the activity change, negative = inhibition in assay [1] worked out at 1.05%; in assay [2] it was 0.048%; in assay [3], 0.157%; in assay [4], 4.73%; in assay [5], 4.67%.
Taken in the same sequence, the figures for `CN1CC[C@H]2CN(C(=O)C3(Cn4ccnc4)CC3)C[C@@]2(C(=O)O)C1` were -0.953%, -0.424%, 0.277%, -3.43% and -24%.
With `C=CCn1c(=O)c2ccc(C(=O)NC(C)C)cc2n2c(=O)n(CC(=O)Nc3cccc(Cl)c3)nc12`, the activity change, negative = inhibition was determined as 5.75% in assay [1]; 0% in assay [2]; 7.29% in assay [3]; 5.05% in assay [4]; 6.72% in assay [5].
The like results for `CC(=O)N[C@@H]1CCNC[C@@H]1c1nc(-c2ccccc2)no1` were, in that order, -6.49%, -10.5%, -2.66%, -9.2% and -8.34%.
Taken in the same sequence, the figures for `c1ccc(-c2cc3c(cn2)NCCN(Cc2ccccn2)C3)cc1` were -26.1%, -10.3%, -75.6%, -27.7% and -27.8%.
The like results for `COc1ccc(CN2C(=O)c3cc4sccc4n3CC2(C)C(=O)NC2CCCCCCC2)cc1` (stereo not given) were, in that order, 0.605%, 3.65%, 5.84%, -3.07% and 0.261%.
As for `O=C1c2cccnc2OC(COc2ccccc2)CN1Cc1cccs1` (stereo not given), the activity change, negative = inhibition is -8.13% in assay [1]; -7.11% in assay [2]; -3.11% in assay [3]; -9.88% in assay [4]; -6.06% in assay [5].
The like results for `Cc1scc2c1N(C(=O)CN1CCN(C)CC1)c1ccccc1NC2=O` were, in that order, 6.68%, 14.8%, 14.1%, -6.49% and -0.336%.
Taken in the same sequence, the figures for `Cc1c(Cl)cccc1NC(=O)Cn1c(=O)c2ccccc2n2nncc12` were -0.698%, 0%, 4.57%, 1.81% and -4.73%.
As to `Cn1nc(C2CCCN2)c2c(C(=O)N3CCOCC3)cc(C3CC3)nc21` (stereo not given), the activity change, negative = inhibition is 1.71% in assay [1]; 0.919% in assay [2]; 3.31% in assay [3]; -7.5% in assay [4]; 2.63% in assay [5].
Taken in the same sequence, the figures for `O=C(Cn1ccc2cc(S(=O)(=O)N3CCCCC3)ccc21)NCCCc1ccccc1` were -1.97%, 5.13%, -0.1%, -1.73% and -1.22%.
On to `COc1ccccc1NC(=O)CSc1nnc2n(Cc3ccc(C)cc3)c(=O)c3ccccc3n12`, for which the activity change, negative = inhibition is -3.65% in assay [1]; 3.9% in assay [2]; 3.28% in assay [3]; -3.17% in assay [4]; 0.428% in assay [5].
Turning to `CCCCS(=O)(=O)N1CCC(F)(c2nc(-c3ccccc3)no2)CC1`, the activity change, negative = inhibition in assay [1] is -4.2%; in assay [2], -2.75%; in assay [3], 0.68%; in assay [4], -6.19%; in assay [5] it was -3.13%.
Take `CCCN1C(=O)c2c(C(=O)NCc3ccc(OCC)cc3)ncn2CC1(C)C(=O)NCCC(C)C` (stereo not given): the activity change, negative = inhibition in assay [1] is 0.062%; in assay [2] it was 0.112%; in assay [3] it was 2.18%; in assay [4], 2.48%; in assay [5], 6.1%.
Take `CCC(C)NC(=O)Cn1nc(C)c2sc(-c3ccccc3)nc2c1=O` (stereo not given): the activity change, negative = inhibition in assay [1] is -2.58%; in assay [2], -5.1%; in assay [3] it was -0.293%; in assay [4], -6.59%; in assay [5], -0.45%.
Taken in the same sequence, the figures for `CCCC1c2ccc(C)n2CCN1C(=O)Nc1ccc(C)cc1Cl` (stereo not given) were -3.12%, 2.73%, -6.55%, 0.303% and -1.25%.
Taken in the same sequence, the figures for `CCc1cccc(N2C(=O)CSc3c(c4ccccc4n3C)C2C(=O)NCCCOC(C)C)c1` (stereo not given) were -1.8%, 0%, 5.48%, -11.6% and 0.526%.
Taken in the same sequence, the figures for `COc1ccc(C(=O)N2CCC(N3CCCC3=O)CC2)cc1` were -3.54%, -4.36%, -0.956%, -5.84% and -1.87%.
In the case of `CCCN1C(=O)c2c(C(=O)NCc3ccccc3Cl)ncn2CC1(C)C(=O)NCc1ccc(C)cc1` (stereo not given), the activity change, negative = inhibition is -3.57% in assay [1]; 4% in assay [2]; 7.46% in assay [3]; 1.83% in assay [4]; 3.16% in assay [5].
`Cc1cc2c(cc1Cl)N(C(=O)Nc1ccc(Oc3cccnc3C)nc1)CC2`: the activity change, negative = inhibition in assay [1] was -22.1%; in assay [2], 1.5%; in assay [3], -3.68%; in assay [4], -16.3%; in assay [5], -9.99%.
For the molecule `COc1cccc(-c2ccc(C(=O)N3CCC(NC(=O)N(C)C)CC3)cc2)c1`, the activity change, negative = inhibition in assay [1] was -5.25%; in assay [2], -2.2%; in assay [3], -2.19%; in assay [4] it was -11.8%; in assay [5], -6.64%.
On to `Cc1c(-c2ccnn2C)cc(C(=O)NCc2ccc(S(C)(=O)=O)cn2)c(=O)n1-c1cccc(C(F)(F)F)c1`, for which the activity change, negative = inhibition was 1.01% and -13.5% and 2.26% in assay [1]; -4.01% and -21.7% and -10.7% in assay [2]; 0.255% and -2.75% and -3.42% in assay [3]; -20.9% and -29.8% and -22% in assay [4]; -10.5% and -8.65% and -11.6% in assay [5].
